These are yes or no findings as the source states them, for the method shown. Some entries that bind do so weakly or less than the wild type. Sequences can lack the tags named with a protein.

Results on three molecules are retold here after paper PMC6053597, “Coupling of polymerase and carrier lipid phosphatase prevents product inhibition in peptidoglycan synthesis” (The Cell Surface, 2018).

In assay [1] the target is T1, PBP1A (Penicillin-binding protein 1A), untagged (E. coli) (UniProt P02918).
T1 sequence: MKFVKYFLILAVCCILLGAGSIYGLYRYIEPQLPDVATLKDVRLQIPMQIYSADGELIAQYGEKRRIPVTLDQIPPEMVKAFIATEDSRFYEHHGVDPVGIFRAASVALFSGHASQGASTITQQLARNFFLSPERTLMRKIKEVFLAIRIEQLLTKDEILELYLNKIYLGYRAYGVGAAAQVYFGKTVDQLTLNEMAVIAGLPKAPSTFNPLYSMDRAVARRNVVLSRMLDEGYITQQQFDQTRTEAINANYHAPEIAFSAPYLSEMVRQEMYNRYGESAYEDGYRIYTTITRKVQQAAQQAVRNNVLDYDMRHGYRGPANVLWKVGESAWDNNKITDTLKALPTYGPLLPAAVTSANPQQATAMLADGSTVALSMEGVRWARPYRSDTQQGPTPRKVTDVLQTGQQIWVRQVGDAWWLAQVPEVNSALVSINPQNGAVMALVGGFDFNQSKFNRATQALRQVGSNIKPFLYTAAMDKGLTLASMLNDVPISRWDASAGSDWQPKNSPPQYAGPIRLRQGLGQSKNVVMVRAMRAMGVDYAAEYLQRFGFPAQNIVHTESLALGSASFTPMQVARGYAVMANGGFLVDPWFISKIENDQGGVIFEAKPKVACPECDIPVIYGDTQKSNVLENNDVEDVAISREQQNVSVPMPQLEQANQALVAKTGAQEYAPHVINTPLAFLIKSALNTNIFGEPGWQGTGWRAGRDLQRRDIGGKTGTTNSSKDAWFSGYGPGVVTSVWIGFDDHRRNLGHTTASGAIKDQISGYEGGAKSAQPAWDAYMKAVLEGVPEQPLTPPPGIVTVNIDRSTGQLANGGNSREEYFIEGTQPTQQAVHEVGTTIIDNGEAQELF
In words: SPR; PBP1A or PBP1B covalently immobilised via their TPase active site on a sensor chip with bound ampicillin; PgpB-ht injected at 0.125-2 μM in 10 mM Tris/maleate pH 7.5, 150 mM NaCl, 5 mM imidazole, 5 mM β-mercaptoethanol, 0.05% DDM; 25 °C, 75 μL/min; equilibrium response fitted to a 1:1 model; apparent KD; both purified.

Assay [2] has as its target T2, PgpB-ht (C-terminal His6-tagged version of PgpB) (E. coli) (UniProt P0A924).
T2 sequence: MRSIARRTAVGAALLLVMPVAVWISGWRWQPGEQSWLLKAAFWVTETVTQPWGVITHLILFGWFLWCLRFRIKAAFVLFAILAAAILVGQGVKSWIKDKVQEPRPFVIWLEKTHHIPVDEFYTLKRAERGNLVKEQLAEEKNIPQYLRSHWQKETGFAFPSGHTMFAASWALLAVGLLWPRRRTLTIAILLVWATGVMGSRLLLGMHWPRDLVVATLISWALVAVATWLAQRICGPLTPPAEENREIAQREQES
As to the kind of experiment: pull-down + cross-linking; His-tagged phosphatase (3 μM PgpB-ht or 5 μM ht-BacA) mixed with 1.5 or 2.0 μM untagged PBP in 10 mM HEPES/NaOH, 10 mM MgCl2, 300 mM NaCl, 0.1% Triton X-100, pH 7.5; 0.2% formaldehyde 10 min 37 °C; captured on Ni-NTA beads; wash with 500 mM NaCl, 50 mM imidazole; SDS-PAGE, Coomassie; both purified.

The target of assay [3] is T3, ht-BacA (N-terminal His6-tagged version of BacA) (E. coli) (UniProt P60932).
T3 sequence: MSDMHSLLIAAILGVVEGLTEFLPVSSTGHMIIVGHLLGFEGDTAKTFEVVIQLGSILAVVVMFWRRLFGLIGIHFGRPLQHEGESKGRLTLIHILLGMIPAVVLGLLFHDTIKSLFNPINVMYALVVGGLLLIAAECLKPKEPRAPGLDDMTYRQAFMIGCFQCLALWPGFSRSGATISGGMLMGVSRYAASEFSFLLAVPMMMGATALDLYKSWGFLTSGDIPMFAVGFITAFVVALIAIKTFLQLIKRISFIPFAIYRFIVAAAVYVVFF
In words: pull-down; as a1 but without cross-linker; His-tagged phosphatase captured on Ni-NTA beads; wash buffer with 20 mM imidazole; SDS-PAGE, Coomassie; both purified.

For assay [4], the target named is T2, PgpB-ht (C-terminal His6-tagged version of PgpB) (E. coli). The assay is described as above.
The target of assay [5] is T3, ht-BacA (N-terminal His6-tagged version of BacA) (E. coli). In words: pull-down + cross-linking; His-tagged phosphatase (3 μM PgpB-ht or 5 μM ht-BacA) mixed with 1.5 or 2.0 μM untagged PBP in 10 mM HEPES/NaOH, 10 mM MgCl2, 300 mM NaCl, 0.1% Triton X-100, pH 7.5; 0.2% formaldehyde 10 min 37 °C; captured on Ni-NTA beads; wash with 500 mM NaCl, 50 mM imidazole; SDS-PAGE, Coomassie; both purified.

B1: PgpB-ht (C-terminal His6-tagged version of PgpB) (enzyme, E. coli)
chain: T2 sequence
notes: PgpB, C55-PP pyrophosphatase (PAP2 family) of E. coli; amplified by PCR from genomic DNA of E. coli BW25113 and cloned into pET28a(+) (pET28a-pgpB); Purified according to Touzé et al., 2008a with modifications; also called oligohistidine tagged PgpB; source: E. coli C43(DE3), membrane fraction solubilised in DDM, purified (Ni-NTA); not shown: His6, C-terminal, kept
Regarding B1, in assay [1], the binding entry was “no binding (tested: 2 µM)”.

B2: PBP1A (Penicillin-binding protein 1A), untagged (enzyme, UniProt P02918 1-850)
chain: T1 sequence
Turning to B2, in assay [2], the binding result is reported as “no binding (tested: 1.5 or 2.0 μM PBP1A, 3 μM PgpB-ht)”.

B3: PBP1B (Penicillin-binding protein 1B), untagged (enzyme, UniProt P02919 58-804)
chain: KPRGKRGWLWLLLKLAIVFAVLIAIYGVYLDQKIRSRIDGKVWQLPAAVYGRMVNLEPDMTISKNEMVKLLEATQYRQVSKMTRPGEFTVQANSIEMIRRPFDFPDSKEGQVRARLTFDGDHLATIVNMENNRQFGFFRLDPRLITMISSPNGEQRLFVPRSGFPDLLVDTLLATEDRHFYEHDGISLYSIGRAVLANLTAGRTVQGASTLTQQLVKNLFLSSERSYWRKANEAYMALIMDARYSKDRILELYMNEVYLGQSGDNEIRGFPLASLYYFGRPVEELSLDQQALLVGMVKGASIYNPWRNPKLALERRNLVLRLLQQQQIIDQELYDMLSARPLGVQPRGGVISPQPAFMQLVRQELQAKLGDKVKDLSGVKIFTTFDSVAQDAAEKAAVEGIPALKKQRKLSDLETAIVVVDRFSGEVRAMVGGSEPQFAGYNRAMQARRSIGSLAKPATYLTALSQPKIYRLNTWIADAPIALRQPNGQVWSPQNDDRRYSESGRVMLVDALTRSMNVPTVNLGMALGLPAVTETWIKLGVPKDQLHPVPAMLLGALNLTPIEVAQAFQTIASGGNRAPLSALRSVIAEDGKVLYQSFPQAERAVPAQAAYLTLWTMQQVVQRGTGRQLGAKYPNLHLAGKTGTTNNNVDTWFAGIDGSTVTITWVGRDNNQPTKLYGASGAMSIYQRYLANQTPTPLNLVPPEDIADMGVDYDGNFVCSGGMRILPVWTSDPQSLCQQSEMQQQPS
Turning to B3, the binding entry in assay [3], in assay [4], in assay [5] and in assay [2] was “binds” in each case.
